40 molecules from the antibiotic and cytotoxicity screens of Wong et al. (2023) can be followed below.

This is one part of the list.

The test system of this assay is S. aureus RN4220. The experiment in a line: growth inhibition call (relative growth <= 0.2). Particulars: 50 µM.
Turning to `O=C(C[C@@H]1CC[C@@H](NS(=O)(=O)c2ccccc2F)[C@H](CO)O1)NCCCN1CCOCC1`, the growth inhibition call is “inactive”.
With `Cc1noc(C)c1NC(=O)Nc1ccc2c(c1)CC(=O)N([C@@H](C)CO)C[C@H](C)[C@H](CN(C)C(=O)NC(C)C)O2` the entry was “inactive”; with `NC(=O)CCN1C(=O)[C@@H]2[C@@H](C1=O)[C@@H]1C=C[C@@H]2C1`, “inactive”; with `CO[C@@H]1CN(C)C(=O)c2cc(NS(=O)(=O)c3ccccc3C)ccc2OC[C@@H](C)N(S(C)(=O)=O)C[C@@H]1C`, “inactive”.
With `C[C@H]1O[C@@H]2[C@H](O[C@@H]1C)N(S(C)(=O)=O)CCN2S(C)(=O)=O` the entry was “inactive”; with `C[C@@H]1CCCCO[C@@H](CN(C)C(=O)C2CCCCC2)[C@@H](C)CN([C@H](C)CO)C(=O)c2cc(NC(=O)c3ccccc3)ccc2O1`, “inactive”.
With `Cn1cccc1C(=O)N[C@H]1CN(S(C)(=O)=O)[C@H]2CCCO[C@@H]12` the entry was “inactive”.
Regarding `CCS(=O)(=O)Nc1ccc2c(c1)C(=O)N(C)C[C@@H](OC)[C@@H](C)CN(C(=O)c1ccc3c(c1)OCO3)[C@H](C)CO2`, the growth inhibition call was “inactive”.
`C[C@H](CO)N1C[C@H](C)[C@@H](CN(C)S(=O)(=O)c2cn(C)cn2)Oc2c(NC(=O)c3ccc(-c4nccs4)cc3)cccc2C1=O`: the growth inhibition call was “inactive”.
With `CCc1cccc2cc[nH]c12` the entry was “inactive”; with `C[C@@H]1CN([C@@H](C)CO)C(=O)c2cc(NC(=O)Cc3ccccc3)ccc2O[C@@H](C)CCCCO[C@H]1CN(C)S(=O)(=O)c1cccs1`, “inactive”.
With `C[C@@H]1CN([C@H](C)CO)C(=O)c2cc(NC(=O)Nc3cccc4ccccc34)ccc2O[C@@H]1CN(C)S(=O)(=O)c1cccs1` the entry was “inactive”.
With `NC(=O)NC1CCCCC1` the entry was “inactive”; with `CN1CCN(C(=O)C[C@@H]2C=C[C@H](NC(=O)Cc3ccccn3)[C@@H](CO)O2)CC1`, “inactive”; with `CCC(=O)Nc1ccc2c(c1)OC[C@@H](C)N(C(=O)CN1CCOCC1)C[C@H](C)[C@@H](OC)CN(C)C2=O`, “inactive”.
For the molecule `CC(=O)O[C@H]1CC(C)(C)C[C@H]2[C@]13CO[C@@]21CC[C@@H]2[C@@]4(C)CC[C@H](O[C@@H]5O[C@H](C(=O)O)[C@@H](O)[C@H](O[C@@H]6O[C@H](CO)[C@H](O)[C@H](O)[C@H]6O[C@@H]6O[C@@H](C)[C@H](O)[C@@H](O)[C@H]6O)[C@H]5O[C@@H]5O[C@H](CO)[C@@H](O)[C@H](O)[C@H]5O)C(C)(C)[C@@H]4CC[C@@]2(C)[C@]1(C)C[C@H]3O`, the growth inhibition call is “inactive”.
With `C[C@@H]1CN([C@@H](C)CO)C(=O)c2cc(NC(=O)C3CCCCC3)ccc2O[C@@H]1CN(C)C(=O)Nc1ccc(C(F)(F)F)cc1` the entry was “inactive”; with `C[C@@H]1CN([C@@H](C)CO)S(=O)(=O)c2ccc(C#Cc3cccc(F)c3)cc2O[C@@H]1CN(C)CC1CC1`, “inactive”.
With `CS(=O)(=O)c1cc(F)ccc1N` the entry was “inactive”; with `C[C@H](CO)N1C[C@H](C)[C@@H](CN(C)Cc2cncnc2)Oc2cc(-c3ccccc3F)ccc2S1(=O)=O`, “inactive”; with `Cc1nsc(-c2ccccc2)n1`, “inactive”.
On to `C[C@@H]1CN([C@@H](C)CO)C(=O)c2cccc(NC(=O)c3cnccn3)c2O[C@H]1CN(C)C(=O)Nc1ccccc1`, for which the growth inhibition call was “inactive”.
With `CC(=O)N1CCC[C@@H]1C(=O)O` the entry was “inactive”; with `Cc1ccccc1NCC(=O)NN`, “inactive”; with `C[C@@H]1CCCCO[C@@H](CN(C)C(=O)NC2CCCCC2)[C@@H](C)CN([C@H](C)CO)C(=O)c2cc(NC(=O)NC3CCCCC3)ccc2O1`, “inactive”.
With `CC(=O)N(CC(O)CO)c1c(I)c(C(=O)NCCO)c(I)c(C(=O)NCC(O)CO)c1I` (stereo not given) the entry was “inactive”; with `COc1ccc(NC(=O)Nc2ccc3c(c2)C(=O)N([C@H](C)CO)C[C@H](C)[C@@H](CN(C)Cc2ccc(C(F)(F)F)cc2)O3)cc1`, “inactive”.
Take `C[C@H]1CN([C@@H](C)CO)C(=O)Cc2cc(NS(=O)(=O)c3ccc(F)cc3)ccc2O[C@@H]1CN(C)Cc1ccc(Oc2ccccc2)cc1`: the growth inhibition call is “inactive”.
With `C[C@@H]1CN([C@H](C)CO)C(=O)c2cc(NC(=O)Nc3ccccc3)ccc2O[C@@H](C)CCCCO[C@@H]1CN(C)Cc1ccncc1` the entry was “inactive”.
With `CCCn1c(N)nc2c1c(=O)n(C)c(=O)n2C` the entry was “inactive”; with `CS(=O)(=O)N1[C@@H]2Cn3c(ccc(-c4ccc(F)cc4)c3=O)[C@H]1[C@@H](C(=O)N1CCOCC1)[C@@H]2CO`, “inactive”.
With `C[C@@H]1CN([C@@H](C)CO)C(=O)c2cc(NC(=O)Cn3cnnn3)ccc2O[C@@H]1CN(C)Cc1ccc(Oc2ccccc2)cc1` the entry was “inactive”; with `C=CCN1C(=O)[C@@]2(O[C@@H](CCO)[C@H]([Si](C)(C)c3ccc(OC)cc3)[C@H]2C)c2cc(N(C=O)c3ccccc3)ccc21`, “inactive”.
For `COc1ccc(NC(=O)N(C)C[C@H]2Oc3c(NC(=O)C4CC4)cccc3C(=O)N([C@@H](C)CO)C[C@@H]2C)cc1`, the growth inhibition call is “inactive”.
With `COc1ccc(S(=O)(=O)N(C)C[C@@H]2OCCCC[C@@H](C)Oc3ccc(NC(=O)c4ccccc4)cc3C(=O)N([C@H](C)CO)C[C@H]2C)cc1` the entry was “inactive”; with `C[C@H]1CCCCO[C@@H](CN(C)CC2CCCCC2)[C@@H](C)CN([C@@H](C)CO)C(=O)c2cc(NC(=O)Nc3ccccc3)ccc2O1`, “inactive”.
With `CC1=C(C(N)=O)[C@@H](c2cccnc2)n2nnnc2N1` the entry was “inactive”; with `C[C@H](CO)N1C[C@H](C)[C@H](CN(C)Cc2ccc(-c3ccccc3)cc2)Oc2ccc(NC(=O)Cc3ccccc3)cc2C1=O`, “inactive”; with `CC(C)(C)[S@@](=O)N1Cc2cc(C(=O)NCCc3ccncc3)nc(-c3cccc(-c4ccc(C#N)cc4)c3)c2[C@H]1CCO`, “inactive”.
With `Cc1cccc(OC[C@H](O)Cn2c(N3CCN(C)CC3)nc3c2c(=O)n(C)c(=O)n3C)c1` the entry was “inactive”.
